According to PubChem BioAssay AID1347165 (National Center for Advancing Translational Sciences (NCATS), 2019):
Among all 220,000 compounds or so, about 5,700 (2.6%) were called active. Inconclusive results, whose numbers are uncertain, are shown with a selection of clear calls. Calls come from the whole dose curve; as a rule, active = well fitted inhibition curve with a large enough effect; inconclusive = small, poorly fitted or top-dose-only effect; inactive = no such curve, though single readings can be large or run the other way. A potency beside an inconclusive call is a rough fit, not a confirmed value.

target: Lysine-specific demethylase 5B (Homo sapiens) (UniProt Q9UGL1); assay: Primary screen for KDM5B Histone Demethylases FDH-coupled qHTS; conditions: FDH-coupled NADH fluorescence (FDH is formaldehyde dehydrogenase); activity change, negative = inhibition: at 57.7 µM (top of the series) unless noted; note: nearly all actives have a fitted effect of over 70% in size; for activity change, negative = inhibition: 0% is about no effect
Sequence of UniProt Q9UGL1 (Q9UGL1 whole entry, looked up): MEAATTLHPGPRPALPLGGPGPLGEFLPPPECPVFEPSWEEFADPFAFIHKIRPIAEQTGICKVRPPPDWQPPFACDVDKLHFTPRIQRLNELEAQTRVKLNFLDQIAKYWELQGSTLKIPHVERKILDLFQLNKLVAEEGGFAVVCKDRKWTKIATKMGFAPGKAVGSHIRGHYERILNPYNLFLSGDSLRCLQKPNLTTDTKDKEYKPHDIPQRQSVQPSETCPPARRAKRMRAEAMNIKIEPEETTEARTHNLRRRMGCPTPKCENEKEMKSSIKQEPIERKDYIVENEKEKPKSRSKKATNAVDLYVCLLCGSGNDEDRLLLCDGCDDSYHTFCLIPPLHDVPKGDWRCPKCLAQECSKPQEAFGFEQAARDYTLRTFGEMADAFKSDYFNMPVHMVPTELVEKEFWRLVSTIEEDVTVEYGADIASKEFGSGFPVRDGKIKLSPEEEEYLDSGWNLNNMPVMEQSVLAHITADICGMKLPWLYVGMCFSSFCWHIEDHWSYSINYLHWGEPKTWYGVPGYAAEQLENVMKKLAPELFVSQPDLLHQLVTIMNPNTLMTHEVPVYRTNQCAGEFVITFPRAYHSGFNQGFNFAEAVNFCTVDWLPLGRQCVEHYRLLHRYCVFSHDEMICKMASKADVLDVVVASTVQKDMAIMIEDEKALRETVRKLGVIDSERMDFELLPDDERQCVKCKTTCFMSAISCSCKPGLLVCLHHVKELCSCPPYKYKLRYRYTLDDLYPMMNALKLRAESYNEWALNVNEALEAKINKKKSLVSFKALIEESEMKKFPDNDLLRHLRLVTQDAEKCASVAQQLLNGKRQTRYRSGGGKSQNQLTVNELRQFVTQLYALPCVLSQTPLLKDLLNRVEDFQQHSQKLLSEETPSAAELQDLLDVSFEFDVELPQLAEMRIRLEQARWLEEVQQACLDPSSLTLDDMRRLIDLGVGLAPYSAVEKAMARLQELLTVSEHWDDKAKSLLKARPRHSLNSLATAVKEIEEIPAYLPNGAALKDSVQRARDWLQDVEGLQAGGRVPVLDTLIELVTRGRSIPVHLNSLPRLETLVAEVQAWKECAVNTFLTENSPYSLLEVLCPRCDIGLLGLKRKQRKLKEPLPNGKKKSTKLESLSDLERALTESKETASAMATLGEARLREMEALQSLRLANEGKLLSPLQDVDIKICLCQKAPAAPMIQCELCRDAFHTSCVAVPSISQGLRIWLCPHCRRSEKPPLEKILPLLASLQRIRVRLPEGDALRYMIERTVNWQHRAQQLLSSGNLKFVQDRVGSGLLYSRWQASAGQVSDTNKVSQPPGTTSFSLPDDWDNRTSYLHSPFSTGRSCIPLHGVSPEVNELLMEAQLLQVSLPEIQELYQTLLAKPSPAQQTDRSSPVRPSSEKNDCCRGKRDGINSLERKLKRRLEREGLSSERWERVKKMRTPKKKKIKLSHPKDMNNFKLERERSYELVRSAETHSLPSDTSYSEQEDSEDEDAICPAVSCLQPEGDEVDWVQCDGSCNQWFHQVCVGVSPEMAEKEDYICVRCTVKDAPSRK
Method in brief: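 KDM5BΔAP (200 nM final) in 50 mM HEPES pH 7.5, 0.01% Tween-20 was preincubated 10 min at RT with compound over a concentration range. Substrate mix (H3K4me3 12.5 µM, α-KG 25 µM, Fe²⁺, ascorbate, NAD⁺, FDH) was added, and NADH fluorescence change over 30 min gave dose-response curves.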
Potency is the fitted concentration of half-maximal effect; tags give direction and shape of the fitted curve.

| SMILES | Potency | activity change, negative = inhibition |
| --- | --- | --- |
| Cc1cc(NC(=O)c2ccc3c(c2)N(C)C2CCCCCN2C3=O)ccc1Cl (configuration not stated) | inconclusive: 28.2 µM [inhibitor, partial curve, poor fit] | – |
| Cc1oc(-c2ccccc2)nc1CSc1nnc(C)n2c1cc1sccc12 | inconclusive: 1.26 µM [inhibitor, partial curve, poor fit] | – |
| Cc1ccc(-c2cn3c(n2)sc2cc(C(=O)NCc4cccs4)ccc23)cc1 | inconclusive: 8.91 µM [inhibitor, partial curve, poor fit] | – |
| CN(Cc1ccc2c(c1)OCO2)C(=O)c1cc(-c2ccccc2)c(N2CCOCC2)s1 | inconclusive: 22.4 µM [inhibitor, partial curve, poor fit] | – |
| CCN1CCN(CCCNC(=O)CCC[C@H]2NC[C@@H]3C[C@H]2CN(Cc2ccccc2)C3)CC1 | inconclusive: 17.8 µM [inhibitor, partial curve, poor fit] | – |
| COCCc1noc(-c2ccc(N(C)Cc3ncc(C)[nH]3)nc2)n1 | inconclusive: 14.1 µM [inhibitor, partial curve] | – |
| O=C(Cn1c2c(c(-c3ccccc3Cl)cc1=O)CCC2)NCCCN1CCOCC1 | inconclusive: 25.1 µM [inhibitor, partial curve, poor fit] | – |
| Cn1c(CCn2ccccc2=O)nc2cc(NS(=O)(=O)c3ccc(Cl)cc3)ccc21 | – | inactive: 4.82% |
| COc1ccc(C(=O)N2CCC(CO)(CN3CCCC3)CC2)cc1C | – | inactive: -5.05% |
| Cc1cccc(N2C(=O)CC(c3c[nH]c4ccccc34)C2=O)c1 (configuration not stated) | – | inactive: 5.44% |
| Cc1nc(N2CCCCC2)ncc1-c1cc(=O)[nH]c(N2CCc3ccccc3C2)n1 | – | inactive: 1.8% |
| CC(=O)NCCNc1nc2c(-c3ccc(C)cc3)nnn2c2ccccc12 | inconclusive: 15.8 µM [inhibitor, partial curve, poor fit] | – |
| Cc1cccc(-c2nc(C#N)c(N3CCCCC3)o2)c1 | inconclusive: 22.4 µM [inhibitor, partial curve, poor fit] | – |
| CCc1ccc(NC(=O)c2ccc3oc(=O)n(Cc4ccccc4)c3c2)cc1 | inconclusive: 17.8 µM [inhibitor, partial curve, poor fit] | – |
| CCC(CO)Nc1cccc2c1S(=O)(=O)N(Cc1cn(Cc3cccc(C(F)(F)F)c3)nn1)Cc1ccccc1O2 (configuration not stated) | inconclusive: 25.1 µM [inhibitor, partial curve, poor fit] | – |
| COc1ccc(-c2ccc3nnc(CNC(=O)Cc4cccc(F)c4)n3n2)cc1 | inconclusive: 3.16 µM [inhibitor, partial curve, poor fit] | – |
| CCN(c1ncnc2c1cnn2-c1cc(Cl)ccc1C)C1CCCCC1 | inconclusive: 28.2 µM [inhibitor, single point] | – |
| COc1ccc(-c2nnc3n2CCN(C(=O)Nc2ccccc2)C3)cc1 | – | inactive: -4.86% |
| COCCCN1Cc2cc(NC(=O)Cc3ccc(OC)cc3)ccc2OC(C)C1=O (configuration not stated) | inconclusive: 22.4 µM [inhibitor, partial curve, poor fit] | – |
| Cc1occc1-c1nnc(SCc2cc(Cl)c3c(c2)OCCO3)n1C | – | inactive: 10.3% |
| O=C1CCC(C(=O)N2CC(c3ncc4c(-c5ccc(F)cc5)nccn34)C2)N1 (configuration not stated) | inconclusive: 44.7 µM [inhibitor, partial curve, poor fit] | – |
| O=C(c1cccs1)N(Cc1ccc(F)cc1)C1CCS(=O)(=O)C1 (configuration not stated) | – | inactive: -1.23% |
| COC(=O)[C@@H]1Cc2c([nH]c3ccccc23)[C@H]2C[C@@H](NCCN3CCOCC3)C[C@@H](c3ccccc3)N21 | inconclusive: 15.8 µM [inhibitor, partial curve, poor fit] | – |

| SMILES | Potency | activity change, negative = inhibition |
| --- | --- | --- |
| O=C(CSc1nnc2ccc(-c3ccncc3)nn12)N1CCN(c2ccccc2)CC1 | – | inactive: 13.7% |
| N#Cc1nc(-c2ccccc2)oc1NCCCN1CCOCC1 | inconclusive: 25.1 µM [inhibitor, partial curve, poor fit] | – |
| CCCCCNc1ncnc2c1CN(C1CCNCC1)C(=O)CN2C | inconclusive: 100 µM [inhibitor, partial curve, poor fit] | – |
| Cc1ccccc1NC(=O)CCNc1c(-c2ccc(F)cc2)nc2cnccn12 | active: 25.1 µM | – |
| COc1ccccc1C(=O)N1CCc2c(nc3cc(-c4ccccc4Cl)[nH]n3c2=O)C1 | active: 22.4 µM | – |
| COc1ccc(-c2coc3c(C)c(OCCN4CCCCC4)ccc3c2=O)cc1 | – | inactive: -20.9% |
| O=C1Nc2ccc(-c3ccccc3F)cc2C(=O)N2CCN(C(=O)C3CCNCC3)C[C@H]12 | inconclusive: 31.6 µM [inhibitor, partial curve] | – |
| Cc1ccc(-c2nnc(NC(=O)c3ccc4c(c3)OCCO4)o2)c(C)c1 | inconclusive: 10 µM [inhibitor, partial curve, poor fit] | – |
| Cc1c(CC(=O)NCCCO)c(=O)oc2cc3c(cc12)CCC(C)(C)O3 | inconclusive: 28.2 µM [inhibitor, partial curve, poor fit] | – |
| COc1ccc2cc(/C=C(/C#N)c3nc4ccccc4[nH]3)ccc2c1 | inconclusive: 20 µM [inhibitor, partial curve, poor fit] | – |
| O=c1cc2nc(-c3cccs3)nc(SCCOc3ccc(Cl)cc3)n2[nH]1 | inconclusive: 35.5 µM [inhibitor, partial curve, poor fit] | – |
| c1ccc(-c2ccnc3nc(CCC4CCCC4)nn23)nc1 | inconclusive: 15.8 µM [inhibitor, partial curve, poor fit] | – |
| COc1ccccc1-c1nnc2n(CCc3ccccc3)c(=O)c3ccccc3n12 | – | inconclusive: -31.3% [inhibitor] |
| COc1ccccc1CNC(=O)c1nn(C)c(=O)c2ccccc12 | – | inactive: 6.64% |
| COc1ccc(CN2CCC(C3CCN(S(C)(=O)=O)CC3)C2)cc1C (configuration not stated) | inconclusive: 17.8 µM [inhibitor, partial curve] | – |
| O=C(CN1CCC2(CC1)OCCO2)Nc1cccc(F)c1 | – | inactive: 8.76% |
| CC(=O)c1cccc(NC(=O)CSc2nnc3ccc(-c4ccc(C)cc4)nn23)c1 | inactive | – |
| CC(C)Oc1cccc2c1c(NC(=O)C1CCCO1)nn2Cc1ccccc1 (configuration not stated) | – | inactive: -5.46% |
| CCn1nc(C(=O)OCC(=O)NC(=O)NCc2ccccc2)c2ccccc2c1=O | – | inactive: 14.2% |
| CC1CCc2sc(C(=O)OCC(=O)NCCC3=CCCCC3)cc2C1 (configuration not stated) | – | inactive: -2.45% |
| O=C(CCc1ccc(F)cc1)N1CCC(c2nc3ccccc3s2)CC1 | – | inactive: 12.5% |
| COC[C@@H]1CN(c2ncccn2)C[C@H]1C(=O)NCC(F)(F)F | active: 20 µM | – |
| Cc1ccccc1-c1nc(C(N)=O)c2c(n1)n(-c1ccc3c(c1)OCO3)c(=O)n2C | inconclusive: 1 µM [inhibitor, full curve, poor fit] | – |

| SMILES | Potency | activity change, negative = inhibition |
| --- | --- | --- |
| COc1ccc(-c2cc(N3CCN(C(=O)c4cc5ccccc5[nH]4)CC3)n[nH]2)cc1 | inconclusive: 17.8 µM [inhibitor, single point] | – |
| CC(Oc1ccc2ccc(=O)oc2c1)C(=O)N1CCc2ccccc21 (configuration not stated) | inconclusive: 25.1 µM [inhibitor, partial curve, poor fit] | – |
| COCc1ccc2c(c1)c(OC(C)(C)C(=O)NC1CCOCC1)nn2CCC(C)C | active: 39.8 µM | – |
| O=C(c1ccco1)N1Cc2[nH]cnc2C[C@H]1c1nc(-c2ccncc2)no1 | – | inactive: -23.5% [at 86.2 µM] |
| Cc1ccc(-c2ccc(C=O)o2)cc1C | – | inactive: 58.8% |
| COC(=O)C1CCN(C(=O)Cn2nc(C(=O)O)c3ccccc3c2=O)CC1 | – | inactive: 2.55% |
| c1ccc(CCCc2noc(-c3ccc(NCc4ccccn4)nc3)n2)cc1 | inconclusive: 25.1 µM [inhibitor, partial curve, poor fit] | – |
| COc1ccc(S(=O)(=O)n2nc(C)c(S(=O)(=O)N3CCCCCC3)c2C)cc1OC | inconclusive: 39.8 µM [inhibitor, single point] | – |
| COc1ccc(C2=C(O)C(=O)N(Cc3ccncc3)C2c2ccc(Br)cc2)cc1 (configuration not stated) | inconclusive: 35.5 µM [inhibitor, single point] | – |
| CN1CCC(N[C@H]2C[C@@H](Cc3cc(C(C)(C)C)on3)C2(C)C)CC1 | – | inactive: 5.64% [at 86.2 µM] |
| Cc1cccc(C(=O)Nc2ccc(-c3nc4cc(C(C)C)ccc4o3)cc2)c1 | inconclusive: 35.5 µM [inhibitor, partial curve, poor fit] | – |
| O=S(=O)(NCCCn1ccc2ccccc21)c1ccccc1F | – | inactive: -15.3% |
| Cc1noc2c(N3CCOCC3)cc(-c3cccnc3)nc12 | – | inactive: -2.84% [at 86.2 µM] |
| CCc1nnsc1C(=O)N(C)CCOc1ccccc1F | – | inactive: -0.999% |
| COc1cc(Cl)c(C)cc1Nc1nc2ccccc2nc1NS(=O)(=O)c1ccccc1 | inconclusive: 1 µM [inhibitor, full curve, poor fit] | – |
| O=C(Nc1ccc2c3c(cccc13)CC2)C1CC1(Cl)Cl (configuration not stated) | inconclusive: 39.8 µM [inhibitor, single point] | – |
| Cc1nc2ccccc2n(CC(=O)NCCN2CCN(c3cccc(Cl)c3)CC2)c1=O | inconclusive: 17.8 µM [inhibitor, partial curve, poor fit] | – |
| O=C(c1ccc2cc[nH]c2c1)N1CCC(N2C(=O)C3(CCCCC3)C2c2ccncc2)CC1 (configuration not stated) | inconclusive: 28.2 µM [inhibitor, partial curve, poor fit] | – |
| Cc1ccc(NC(=O)N2CCc3[nH]c4ccc(F)cc4c3C2)cc1 | inconclusive: 15.8 µM [inhibitor, single point] | – |
| COC(=O)[C@@H]1Cc2ncn(Cc3ccccc3)c2CN1S(=O)(=O)c1cccc2c(N(C)C)cccc12 | inconclusive: 39.8 µM [inhibitor, single point] | – |
| CCCCC(CC)CNC(=O)c1ccc2c(=O)n(CCOC)c(=O)[nH]c2c1 (configuration not stated) | inconclusive: 20 µM [inhibitor, single point] | – |
